Test results taken from the BET-seq Pho4 binding data (Le et al. 2018).
The list shows a part of the results. The energies were worked out here from pooled read counts, against the library average; single values are noisy.

Biological target: T1, Pho4 (S. cerevisiae) (UniProt P07270)
T1 sequence: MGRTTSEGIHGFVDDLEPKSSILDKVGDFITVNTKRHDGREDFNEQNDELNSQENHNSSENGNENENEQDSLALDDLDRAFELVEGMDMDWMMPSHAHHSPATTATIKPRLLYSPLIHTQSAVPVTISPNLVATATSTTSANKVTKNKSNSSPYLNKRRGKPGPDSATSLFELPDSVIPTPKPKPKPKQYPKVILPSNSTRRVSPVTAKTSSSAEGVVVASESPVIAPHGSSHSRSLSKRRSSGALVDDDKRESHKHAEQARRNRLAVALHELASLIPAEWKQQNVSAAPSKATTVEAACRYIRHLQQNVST
Assay: relative binding free energy (BET-seq); higher = weaker binding
Settings: reference: library average

| Sequence | relative binding free energy [kcal/mol] |
| --- | --- |
| GAATTCACGTGGTCGG | 0.33 |
| GGGACCACGTGTATTG | 0.23 |
| GGTTTCACGTGTCATT | 0.24 |
| GCTGGCACGTGATAGG | -0.03 |
| TGTGCCACGTGCGGTG | -0.16 |
| TGTGGCACGTGGTATG | -0.1 |
| TGGATCACGTGGTGTA | 0.17 |
| GTAAACACGTGGATTT | 0 |
| TGCGCCACGTGGGTCG | -0.1 |
| GAGCGCACGTGTGGTT | -0.11 |
| TGGCTCACGTGTCTAT | 0.34 |
| GTGCGCACGTGGGAGA | -0.24 |
| TGGCGCACGTGGTATG | -0.24 |
| GTTGTCACGTGGGGAT | 0.17 |
| AGTAGCACGTGAAATT | 0.27 |
| TGATACACGTGCAGTG | -0.08 |
| TTACTCACGTGGAGGG | 0.15 |
| TAGTTCACGTGGGAGA | 0.29 |
| GGAGTCACGTGAGTGG | 0.41 |
| TTGTTCACGTGGGGAC | 0.05 |
| TTGGCCACGTGCGTTG | -0.16 |
| CTGGTCACGTGTTCTT | 0.08 |
| ATAGACACGTGGGGAT | -0.07 |

| Sequence | relative binding free energy [kcal/mol] |
| --- | --- |
| AGTGGCACGTGGCTGT | -0.1 |
| GGGTGCACGTGGGGGC | -0.03 |
| TTGATCACGTGTATTG | 0.1 |
| CGTTGCACGTGGAGTG | 0.06 |
| GTTATCACGTGCGGGA | 0.16 |
| TAGCTCACGTGGTCGT | 0.22 |
| AGAGACACGTGGGCGT | -0.09 |
| CGTGTCACGTGTAAGT | 0.23 |
| TGGTTCACGTGAAATG | 0.39 |
| ATTAACACGTGTGTGG | 0.08 |
| GCGGGCACGTGGCCGG | -0.25 |
| ATGTACACGTGCGGAT | 0.13 |
| GCTTGCACGTGATAGT | 0 |
| CTTGACACGTGGGGGC | -0.2 |
| TAATTCACGTGGCGGG | 0.06 |
| GGTGCCACGTGGGTAA | -0.13 |
| GGGTCCACGTGAGGTT | 0.4 |
| GCTGTCACGTGTGTGT | 0.05 |
| TTAAGCACGTGGGCGT | -0.26 |
| GGGGACACGTGTCCGG | 0.16 |
| CTTGTCACGTGAAAAT | 0.38 |
| TGTTGCACGTGGGGCG | -0.06 |
| TGACGCACGTGGTGAG | -0.31 |

| Sequence | relative binding free energy [kcal/mol] |
| --- | --- |
| TTAAGCACGTGGTCTA | -0.15 |
| ATTATCACGTGTTAGT | 0.11 |
| GGAGTCACGTGAAGTG | 0.36 |
| TAAGTCACGTGGGTTC | -0.05 |
| CGTGACACGTGGGGAG | -0.11 |
| ATGATCACGTGCTGGG | 0.15 |
| TGTATCACGTGTGTAA | 0.17 |
| AGTAACACGTGAATTG | 0.19 |
| AGAATCACGTGATAGG | 0.33 |
| ATGGGCACGTGACCGG | -0.19 |
| GGGCGCACGTGGTTAA | -0.04 |
| CGTGACACGTGTAGAG | -0.01 |
| GTGAGCACGTGCGGAT | -0.1 |
| TGGTCCACGTGTAATG | 0.03 |
| TGGTCCACGTGTGTTA | 0.04 |
| CGGTGCACGTGAGGGC | 0.17 |
| TGGAACACGTGGGTGA | 0.04 |
| ATTGACACGTGGTATA | -0.07 |
| TGACACACGTGTTGGG | 0.05 |
| TTAGTCACGTGGATAA | 0.04 |
| CTATTCACGTGGGAGT | 0.22 |
| TTTTTCACGTGGACGA | 0.22 |
| ATTTGCACGTGTAGAT | 0.25 |

| Sequence | relative binding free energy [kcal/mol] |
| --- | --- |
| ATTGGCACGTGTGAAG | 0 |
| CGCGGCACGTGGGGCT | -0.25 |
| GTAACCACGTGGTGTA | 0.05 |
| ACTTTCACGTGTGTTT | 0.15 |
| CGGGTCACGTGTGTCA | 0.09 |
| GTGGGCACGTGCCGTG | -0.21 |
| GGGAGCACGTGCTGAG | -0.18 |
| GGGTGCACGTGAAGGT | 0.25 |
| TTTCACACGTGGGGAT | 0.05 |
| CCGAGCACGTGTGTGG | 0 |
| GATCTCACGTGTATGT | 0.2 |
| GTTGTCACGTGGTTAC | 0.16 |
| GTGGGCACGTGCTGGT | -0.15 |
| GATTTCACGTGTTGTG | 0.26 |
| TGGTTCACGTGTAACA | 0.3 |
| GAAGTCACGTGGTAGT | 0.07 |
| AGCTGCACGTGGGGCT | -0.21 |
| TAATGCACGTGTTAGT | -0.06 |
| GATCTCACGTGTGGAT | 0.3 |
| CGGGCCACGTGGCGGA | -0.16 |
| GGTAGCACGTGCTGGA | -0.09 |
| TGTAGCACGTGCGAAG | -0.08 |
| ACCTTCACGTGGGGGT | 0.06 |

| Sequence | relative binding free energy [kcal/mol] |
| --- | --- |
| GGGGACACGTGTATCG | 0.04 |
| CTGTGCACGTGATATT | 0.11 |
| ACGTGCACGTGTAGGA | -0.02 |
| TAACGCACGTGGGAGG | -0.3 |
| TATAGCACGTGTAAGA | 0.09 |
| TGGCTCACGTGTTTAG | 0.29 |
| AGGGGCACGTGGAGGG | -0.14 |
| ATGTGCACGTGTTGTA | 0 |
| TGGTACACGTGTATGT | 0.1 |
| GGGTGCACGTGGCCGT | -0.09 |
| TAATTCACGTGTGGAT | 0.26 |
| GTCGGCACGTGTGTGA | 0.04 |
| TTTGACACGTGGAATG | 0.15 |
| TCTATCACGTGTTGCG | 0.25 |
| TTTAGCACGTGGGGGA | -0.21 |
| TGATGCACGTGGGGGA | -0.13 |
| TTAATCACGTGGAGAG | 0.15 |
| TAAATCACGTGTTGTT | 0.02 |
| TCGTACACGTGATGAT | 0.32 |
| TGACGCACGTGAGTTG | 0.12 |
| TTTCTCACGTGGGTAA | 0.2 |
| AATCACACGTGGTAGT | 0.14 |
| ACGAGCACGTGTATGG | -0.02 |
